{
  "source": "paper PMC12136788",
  "binders": {"B1": {"name": "chr2:10930004:10930005:-_ENSG00000143870_ENST00000272227|hu_hu|FALSE|FALSE (ssRNA)", "RNA": "GGGAGUUCUACAGUCCGACGAUCGUCAUAAUCCACAGGAGACUCGCCUUUCUGAAAUAUCUUGAUUGUAGGAAAUCCUCUAAUCCCGUAUCGGGAGGCCAGAACCUGAUUGACUGUAGCAUCCACAGCUGCCAGUUUCACUUUCAACAGAGGAUUGAGCAUCA"}, "B2": {"name": "chr7:54825262:54825263:-_ENSG00000132432_ENST00000352861|hu_hu|FALSE|FALSE (ssRNA)", "RNA": "GGGAGUUCUACAGUCCGACGAUCCCGACUUGGCUCAACAAACUGCAUUACCUGAUCCAUGACUGCCUACCCAACCGACACCUAAAAUGCCAGGGACACGUAGCACUGGAGCUUGCUGAUGGAGGCCCACCGGAACCGGAAUCCCAACAGAGGAUUGAGCAUCA"}, "B3": {"name": "chr1:78444685:78444686:-_ENSG00000162613_ENST00000370768|hu_mus|FALSE|FALSE (ssRNA)", "RNA": "GGGAGUUCUACAGUCCGACGAUCGCCAGCCGAGCCAGACGACGGCGGAGGCACUGUGGAGUAGUCGGCCAUACCCACGCUACAGCACACGCUGCCGUUUCCUCGCGGAGGGAGGCGCCGCUCUCGGUUAACUGCUAAGAAAGGCAACAGAGGAUUGAGCAUCA"}, "B4": {"name": "chr9:35067926:35067927:-_ENSG00000165280_ENST00000358901|hu_mus|motif|central (ssRNA)", "RNA": "GGGAGUUCUACAGUCCGACGAUCUGGCUGGAUGCUGAUGACAUCUCCUAGGCGAACUCGGAGGUUAUUCCGAACAACUCGGUUCAUUCGAAUCUUCUCAUCAGAACACGUGUCAUCAGAAAGAACAAUGCAUACAGCUUCCCGCAACAGAGGAUUGAGCAUCA"}, "B5": {"name": "chr19:3980662:3980663:-_ENSG00000167658_ENST00000309311|hu_mus|FALSE|FALSE (ssRNA)", "RNA": "GGGAGUUCUACAGUCCGACGAUCGAACACUCUACCAAAGGCAUAGAAGCGGCCUUUGUCAGAGGUUGGCACCAUCUUGGAAAUGUACAUCAUAAGUGGGCCUUUGGGGUCGCAGCUCUUAAUACCCAUGGCGGCCUCAUCGUCCAACAGAGGAUUGAGCAUCA"}, "B6": {"name": "chr11:55313332:55313333:+_ENSMUSG00000018583_ENSMUST00000018727|mus_hu|motif|central (ssRNA)", "RNA": "GGGAGUUCUACAGUCCGACGAUCUCUUUAAAAGUCCGUUAUUCCUAAAAUAUCAUUCCACAAAAUUGGAAGUGAAAGACGGAAGGUCAGGAAAGGGAAGAGAGGGAGAGGGAGCACACACCAUUAACACACAAAAAAAGUAAACAACAGAGGAUUGAGCAUCA"}, "B7": {"name": "chr10:127182121:127182122:+_ENSMUSG00000044617_ENSMUST00000054287|mus_hu|FALSE|FALSE (ssRNA)", "RNA": "GGGAGUUCUACAGUCCGACGAUCGUCUCUUAUACAAAAGAGAUGCUGGGUAAUGUGUAUACAAAAACAAAAAUAAAUAAAUAUUAAUGUCCAAAAAGGCUUUGUGAGUUAAUGAAAACCACUUGCUUGUGAAACAGCCCGGGGCAACAGAGGAUUGAGCAUCA"}, "B8": {"name": "chr14:78183846:78183847:+_ENSG00000119705_ENST00000557342|hu_hu|hu_hu_hu_mus_False|68_88 (ssRNA)", "RNA": "GGGAGUUCUACAGUCCGACGAUCUCUCAGAAAUCUUUCUUCAUCAGCAUCAUCAGAUCCGUGCAAAAGUUUUGGCCUUUGAGCUUGAACGUGGAUCUAUGGGAGGGAAAGCACUGUCAGAAAAGGUAAUUUUUUUUUUAAAGACAACAGAGGAUUGAGCAUCA"}, "B9": {"name": "35098351_35098679_1895_CDS_ENSMUSG00000024359_ENSMUST00000025217|mouse|control|control (ssRNA)", "RNA": "GGGAGUUCUACAGUCCGACGAUCGGAAAUCUCUUCCUUUAGCUUGUUGCACUCAUCAGCAGGCAACUGGUCCUUAAAUUCUUCCAUCUUGGUUUCUGUGUCAUGAAUAAUUCCUUCAGCCAUAUUAACUGCUUCAACACGUUCCAACAGAGGAUUGAGCAUCA"}, "B10": {"name": "chr6:160205776:160205777:-_ENSG00000120438_ENST00000420894|hu_mus|FALSE|FALSE (ssRNA)", "RNA": "GGGAGUUCUACAGUCCGACGAUCGAGCGCAUAGCCAUUGAUCAGCAUGCUUUCUAUCUGACUUCUCCCAUGGGCUUUCAGAAUAUUAACAGAAUUGACUGGAUAGCGAGGCUGGCCUCUGGCAUCUGUGUAUUUAACAGCAAGCAACAGAGGAUUGAGCAUCA"}, "B11": {"name": "chr12:48362563:48362564:+_ENSG00000134291_ENST00000256686|hu_hu|hu_hu_hu_mus_False|1_48 (ssRNA)", "RNA": "GGGAGUUCUACAGUCCGACGAUCUCCGUCAAGCCCUUCGAUAGACCCUUGCGGGGGAAACUGUAAUCACUUUGUAUGGGGAAGGAAAAAAAAAGCCAAAAACUUUCCAAAAAGCGGGGGUGGGGUGAGGCGGGAGGUUGGGAACAACAGAGGAUUGAGCAUCA"}, "B12": {"name": "chr17:64801638:64801639:+_ENSG00000154229_ENST00000413366|hu_mus|hu_hu_hu_mus_False|1_108 (ssRNA)", "RNA": "GGGAGUUCUACAGUCCGACGAUCUAUAAAUACAUAUACAUAUGUACACAUAUAUAGUAAAACCCUAGUUAAACGUGUAAAGUAGCCAUUCAUUUUUAAAAUUACAUCUACAUUAAAAAAUUAAUAUAUCUGAUAGAGUGCCCACAACAGAGGAUUGAGCAUCA"}, "B13": {"name": "chr1:35656432:35656433:-_ENSG00000116560_ENST00000357214|perfect_dup|FALSE|FALSE (ssRNA)", "RNA": "GGGAGUUCUACAGUCCGACGAUCAGAUCUUCCGCGAUCAUCCACAAUUACAACAGCCCUUUCAAUAGGACCAAACUGGCUAAAGGCCUCUUCCAAAAGUUCGUUGGAAACAUAAGGAGAGAGAUUUCGAACAGACAGGGCUGCCAACAGAGGAUUGAGCAUCA"}, "B14": {"name": "chr2:127988141:127988142:+_ENSMUSG00000027381_ENSMUST00000110341|mus_hu|motif|central (ssRNA)", "RNA": "GGGAGUUCUACAGUCCGACGAUCCUGUCAAAAUUCAUCAGUGCAAAACACAAGUAAGCCAGGGAAACUGCAAUACAAAUGCGGCAUACGCUGGGUCCUAGAAAACAGGUUAGUGAUGGAUCAGUAUACAGCCAGAUCAGUGCUCAACAGAGGAUUGAGCAUCA"}},
  "note": "This is one part of the list.",
  "data": [
    {"biological_target": "T1, UNK ZnF1-3 (human, UniProt Q9C0B0 31-174)", "T1 sequence": "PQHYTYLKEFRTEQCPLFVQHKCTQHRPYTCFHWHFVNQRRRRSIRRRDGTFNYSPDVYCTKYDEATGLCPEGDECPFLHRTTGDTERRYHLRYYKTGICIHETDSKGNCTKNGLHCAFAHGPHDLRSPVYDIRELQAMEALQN", "test": "nsRBNS (natural sequence RNA bind-n-seq); RBNS binding buffer (assumed for nsRBNS): 25 mM Tris pH 7.5, 150 mM KCl, 3 mM MgCl2, 0.01% Triton X-100, 500 ug/ml BSA, 20 U/ml SUPERase-In, 4 C; UNK is unkempt and MSI1 is Musashi-1; names of the RNAs are library labels; protein concentration not given here; high values mean tight binding", "units": {"binding signal": "enrichment R"}, "values": [
      {"binder": "B1", "binding signal": 1.15},
      {"binder": "B2", "binding signal": 1.22},
      {"binder": "B3", "binding signal": 0.78},
      {"binder": "B4", "binding signal": 0.663},
      {"binder": "B5", "binding signal": 1.18},
      {"binder": "B6", "binding signal": 3.11},
      {"binder": "B7", "binding signal": 1.16},
      {"binder": "B8", "binding signal": 2.35},
      {"binder": "B9", "binding signal": 0.598},
      {"binder": "B10", "binding signal": 1.22},
      {"binder": "B11", "binding signal": 2.45},
      {"binder": "B12", "binding signal": 1.64},
      {"binder": "B13", "binding signal": 1.07},
      {"binder": "B14", "binding signal": 1.3}
    ]}
  ]
}
